In all, about 33,000 sequences were measured (“E-score (-0.5 to 0.5)”: median about -0.056, highest 2% from about 0.38 on). This is one part of the list.
What follows are sequences tested against Stb4 (UniProt P50104) (assay: PBM E-score (8-mer binding enrichment) (E-score (-0.5 to 0.5)); higher = stronger / more preferred TF binding; most listed sequences are background and not binding sites). Details: protein concentration: 200 nM; construct: GST-DNA-binding domain.
Summary of the method: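 Using PURExpress in vitro transcription/translation, GST-tagged yeast transcription factors were made in full-length or DNA-binding-domain form. These were applied at about 100-200 nM to double-stranded universal all-10-mer Agilent arrays, and bound protein was detected with fluorescent anti-GST. Scans were normalised with masliner before the Universal PBM Analysis Suite assigned E-scores to ungapped eight-base words pooled with their reverse complements.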
With CATATGGC the “PBM E-score” value was -0.144. In the case of ACATGAAA, the “PBM E-score” value was -0.234. In the case of CAGATGGC, the “PBM E-score” value was -0.119. For GGTCACTA, the “PBM E-score” value was 0.0182. With GTTGGTGA the “PBM E-score” value was -0.146. For ATTTGAGG, the “PBM E-score” value was -0.0518. For GATGTAGA, the “PBM E-score” value was 0.0669. ATTCGGAC was tested, and the “PBM E-score” value was 0.373. With GGCACCAA the “PBM E-score” value was 0.0806. ATCGGTCG was tested, and the “PBM E-score” value was 0.164. In the case of ACTAATAT, the “PBM E-score” value was -0.0215. For AACGCAAC, the “PBM E-score” value was -0.0679. For GTAAATGA, the “PBM E-score” value was 0.0685. For AAAGCTCG, the “PBM E-score” value was 0.12. With GGTCTACA the “PBM E-score” value was -0.11. CGTGCAGA was tested, and the “PBM E-score” value was -0.12. CCGTGTGA was tested, and the “PBM E-score” value was 0.173. In the case of AATTAAGG, the “PBM E-score” value was -0.148. For CATTCGAG, the “PBM E-score” value was -0.168. For TCTCGGAA, the “PBM E-score” value was 0.479. In the case of AGCCAAAG, the “PBM E-score” value was -0.147. CAGGGAAC was tested, and the “PBM E-score” value was -0.188. AATTCAGT was tested, and the “PBM E-score” value was -0.18. In the case of AATACGCT, the “PBM E-score” value was -0.0749. In the case of AAGAACCA, the “PBM E-score” value was -0.108. In the case of AAATGTGC, the “PBM E-score” value was 0.163. With GGCTCCGA the “PBM E-score” value was 0.313. For TGCGACCA, the “PBM E-score” value was -0.0687. In the case of CACATAAG, the “PBM E-score” value was -0.24. In the case of GCAAAGGC, the “PBM E-score” value was -0.226. In the case of ATTAGAAA, the “PBM E-score” value was 0.127. In the case of CACCGGGA, the “PBM E-score” value was 0.244. AGTATACT was tested, and the “PBM E-score” value was -0.301. For AGCCAACT, the “PBM E-score” value was -0.23. In the case of GAGCGTAA, the “PBM E-score” value was -0.176. With ACGCCGAT the “PBM E-score” value was 0.131. In the case of GGAAGACC, the “PBM E-score” value was 0.208. In the case of AACTGATT, the “PBM E-score” value was -0.0941. AGCGTGCG was tested, and the “PBM E-score” value was 0.0759. CCATATAA was tested, and the “PBM E-score” value was -0.14. With CCGCCCTA the “PBM E-score” value was -0.0277. In the case of AATACGAA, the “PBM E-score” value was -0.0149. CATTTAGC was tested, and the “PBM E-score” value was -0.16. With GTAGAAGA the “PBM E-score” value was -0.105. In the case of CACAACCC, the “PBM E-score” value was -0.0519. With GAAGAGAC the “PBM E-score” value was 0.129. With AACAGCTA the “PBM E-score” value was -0.18. In the case of CTCCGTCA, the “PBM E-score” value was 0.0562. For AGTGGGTC, the “PBM E-score” value was -0.00808. In the case of AGCGCAAG, the “PBM E-score” value was -0.184. With CCTGGCCC the “PBM E-score” value was -0.0666. With CTCAATCA the “PBM E-score” value was -0.0792. For AATCTGCT, the “PBM E-score” value was -0.0501. AGGTTGCC was tested, and the “PBM E-score” value was -0.0751. With AGGCACCT the “PBM E-score” value was 0.00309. In the case of ACGTAACG, the “PBM E-score” value was -0.107. CTAAGTAA was tested, and the “PBM E-score” value was -0.152. CCGTTACG was tested, and the “PBM E-score” value was 0.194. For GACGAGTC, the “PBM E-score” value was -0.165. With AGCGTAAC the “PBM E-score” value was -0.0658. For AAAGTTGG, the “PBM E-score” value was -0.218. AAAATGAT was tested, and the “PBM E-score” value was 0.137. With TAATGATA the “PBM E-score” value was -0.0015. For GGTGCCAC, the “PBM E-score” value was -0.108. In the case of CGCTGCGA, the “PBM E-score” value was -0.0754. For CTTTCCCA, the “PBM E-score” value was -0.053. ACGCTCTA was tested, and the “PBM E-score” value was -0.118. AATCTCCC was tested, and the “PBM E-score” value was 0.0431. In the case of AAGTTCAA, the “PBM E-score” value was 0.209. TCAACTCA was tested, and the “PBM E-score” value was 0.0356. For GAGCCAAA, the “PBM E-score” value was -0.0033. AATCAGGT was tested, and the “PBM E-score” value was -0.0174. In the case of AGCTACCA, the “PBM E-score” value was -0.179. For CTATAAAG, the “PBM E-score” value was -0.0367. With GATTTGCC the “PBM E-score” value was 0.18. In the case of GACCGTGA, the “PBM E-score” value was -0.0731. For CACCCATC, the “PBM E-score” value was -0.0515. With AAAGCAAA the “PBM E-score” value was -0.0785. For AAACAGGT, the “PBM E-score” value was -0.0919. CAATTAAG was tested, and the “PBM E-score” value was -0.008. AGCTGTTC was tested, and the “PBM E-score” value was -0.0888. CTGTGGCC was tested, and the “PBM E-score” value was -0.115. For GCCAGGAC, the “PBM E-score” value was -0.295. In the case of TAGGGACA, the “PBM E-score” value was 0.0391. For GGAAGAAA, the “PBM E-score” value was 0.187. With AAGAAGGG the “PBM E-score” value was -0.176. With CCCTTTGA the “PBM E-score” value was -0.226. For AAACCTAG, the “PBM E-score” value was -0.157. With GCAGCCCA the “PBM E-score” value was -0.251. With GCCGCACA the “PBM E-score” value was 0.0371. For ATATAACC, the “PBM E-score” value was 0.0269. In the case of AGTTTGGA, the “PBM E-score” value was -0.116. AAAATATA was tested, and the “PBM E-score” value was 0.0979. With ATGCAAGG the “PBM E-score” value was -0.236. With ATGAGTAG the “PBM E-score” value was 0.0524. ACGTTGTC was tested, and the “PBM E-score” value was -0.13. In the case of CGAGACAG, the “PBM E-score” value was -0.00345. With GACCTATC the “PBM E-score” value was 0.0106. In the case of CATGAGCG, the “PBM E-score” value was -0.0288. For GCCCTAGA, the “PBM E-score” value was -0.263. With AATAAACT the “PBM E-score” value was -0.0135. GAAAGTTA was tested, and the “PBM E-score” value was 0.0653. AAGCACGC was tested, and the “PBM E-score” value was -0.105. AGTCGCAG was tested, and the “PBM E-score” value was -0.0983. For TCCTACAA, the “PBM E-score” value was 0.0307. For GGTTGGAA, the “PBM E-score” value was 0.12. With ACCAGGCT the “PBM E-score” value was -0.285. In the case of GCCCCGTA, the “PBM E-score” value was -0.0452. In the case of GGCCACTA, the “PBM E-score” value was -0.182. With CAACCCAA the “PBM E-score” value was -0.264. In the case of TGCCCACA, the “PBM E-score” value was -0.147. With ATGCACGC the “PBM E-score” value was 0.135. CGTACAAC was tested, and the “PBM E-score” value was -0.103. With CCCCCCGA the “PBM E-score” value was 0.28. In the case of ATGGTCCG, the “PBM E-score” value was 0.251. In the case of GTCCTGCA, the “PBM E-score” value was -0.21. ACATTTCG was tested, and the “PBM E-score” value was 0.0128. With CAAGAAAC the “PBM E-score” value was 0.0767. With ACATCAGT the “PBM E-score” value was -0.094. For ATGCGGGC, the “PBM E-score” value was -0.1. With CGGTGTTA the “PBM E-score” value was 0.26. With TGAATTAA the “PBM E-score” value was 0.106. With AGATTGGG the “PBM E-score” value was -0.139. CCTTCACC was tested, and the “PBM E-score” value was -0.0452. With ACGGGGTG the “PBM E-score” value was -0.0618. For CAACTATA, the “PBM E-score” value was -0.084. In the case of ACCGTCCA, the “PBM E-score” value was 0.0203. For AGGAATTC, the “PBM E-score” value was -0.0705. For AAAACGCT, the “PBM E-score” value was -0.0857. For CACCGCGA, the “PBM E-score” value was -0.209. For ATGCAGCA, the “PBM E-score” value was -0.082. In the case of CAACGGTG, the “PBM E-score” value was -0.112. In the case of AAAATTTC, the “PBM E-score” value was 0.105. With ACGTCAAT the “PBM E-score” value was -0.176. In the case of ACTAGGTC, the “PBM E-score” value was -0.065. For GATCGCCC, the “PBM E-score” value was -0.0185. TCTTATCA was tested, and the “PBM E-score” value was -0.101. AATGTTTA was tested, and the “PBM E-score” value was -0.204. CGATTTAC was tested, and the “PBM E-score” value was 0.127. With ATTACCCA the “PBM E-score” value was -0.0268. For ACGAGCCG, the “PBM E-score” value was 0.292. CGACGGCC was tested, and the “PBM E-score” value was -0.0543. For ACAAGCTA, the “PBM E-score” value was -0.195. With CGCCCGAA the “PBM E-score” value was 0.293. With AAACTCAG the “PBM E-score” value was -0.165. In the case of CCACCATC, the “PBM E-score” value was -0.024. ATTCCATA was tested, and the “PBM E-score” value was -0.0219. In the case of AGGAGCCC, the “PBM E-score” value was -0.00774. With AAGTCGAC the “PBM E-score” value was 0.0521. With AACGGTCG the “PBM E-score” value was 0.107. CCTCGGCG was tested, and the “PBM E-score” value was 0.411. TGGGCTAA was tested, and the “PBM E-score” value was -0.0689. In the case of AAAAAAAG, the “PBM E-score” value was 0.082. In the case of AAAACACA, the “PBM E-score” value was -0.12. For CCTCAGTC, the “PBM E-score” value was -0.127. For CTTCTTAA, the “PBM E-score” value was -0.0974. In the case of AAATGCTC, the “PBM E-score” value was -0.00443. AGGGCGCG was tested, and the “PBM E-score” value was -0.0943. With AGCAATTC the “PBM E-score” value was 0.0293. For GATGAAAA, the “PBM E-score” value was 0.05. With CTTCAACA the “PBM E-score” value was -0.216. With ATCAAAGC the “PBM E-score” value was 0.155. In the case of TAGCTACA, the “PBM E-score” value was -0.0643. For TAGCGAAA, the “PBM E-score” value was -0.141. ACAGCTGT was tested, and the “PBM E-score” value was -0.148. In the case of TCGGCCGA, the “PBM E-score” value was 0.419. For GGAGAAAC, the “PBM E-score” value was 0.0868. For TCACCGGA, the “PBM E-score” value was 0.306. CCCCACAC was tested, and the “PBM E-score” value was -0.175. CCCCTTTC was tested, and the “PBM E-score” value was -0.0961. In the case of CGCGGCGC, the “PBM E-score” value was 0.106. In the case of ACATAGAT, the “PBM E-score” value was -0.0527.
